This is one part of the list.

Consider 42 sequences from paper PMC7819943, “Rice protein-binding microarrays: a tool to detect cis-acting elements near promoter regions in rice”.

This experiment has as its target T1, OsWOX13 (Oryza sativa, UniProt Q5QMM3 1-267).
T1 sequence: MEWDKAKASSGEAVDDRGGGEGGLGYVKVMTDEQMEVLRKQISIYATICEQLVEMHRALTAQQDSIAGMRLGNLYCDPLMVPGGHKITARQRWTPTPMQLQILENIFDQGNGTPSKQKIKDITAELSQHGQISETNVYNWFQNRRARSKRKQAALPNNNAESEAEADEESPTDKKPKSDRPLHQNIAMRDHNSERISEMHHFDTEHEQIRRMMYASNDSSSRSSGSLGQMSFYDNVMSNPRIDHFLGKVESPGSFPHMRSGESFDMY
The experiment in a line: protein-binding microarray (RPBM); PBS, 2% BSA, 51.3 ng/ul salmon testes DNA, 50 uM zinc acetate, 200 nM TF, 25 C, 1 h; high values mean tight binding. The note with it: protein: recombinant; tags: N-terminal polyhistidine and DsRed monomer fusion (pET32a); label: CyDye5-dUTP incorporated in the synthesized complementary strand; 3' TTTTT single-stranded linker to array surface; dsDNA, one strand shown. The method in brief:
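The binding signal for each feature is its fluorescence intensity in arbitrary units. An Axon 4000B scanner was used to read a custom Agilent array that had been made double-stranded with Cy5-dUTP primer extension, blocked with 2% BSA, incubated at 25 °C for 1 h with 200 nM protein in PBS, 2% BSA, salmon testes DNA and 50 µM zinc acetate, and washed. The protein was an N-terminal polyhistidine–DsRed transcription factor fusion from E. coli BL21-CodonPlus, purified on Ni–NTA.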
Regarding “GGCTGCTTTGATTAACTCGATCATGAGTCAATGGACCATGCGGAGTCACCTAGTGCAG”, the binding signal is 6530 fluorescence intensity (a.u.). For the sequence “GGGGATGAATTGATCACGCGGTGTGCGCTTTCTGATTCTGCGGAGTCACCTAGTGCAG”, the binding signal is 5930 fluorescence intensity (a.u.). As to “CTCTTAAATTGTGATTTCTGATGCTTCTCAAGCCAGACCACGGAGTCACCTAGTGCAG”, the binding signal was 21000 fluorescence intensity (a.u.).

On to “GCTGGTGCATGATTGGTATTAGTATAGATATACAGTTCTGCGGAGTCACCTAGTGCAG”, for which the binding signal was 26100 fluorescence intensity (a.u.). As for “GCCTGCATTCATTTCCCTAATCAATCGGCTCGGATAATGTCGGAGTCACCTAGTGCAG”, the binding signal is 4450 fluorescence intensity (a.u.). In the case of “AGTAAATTGATTTAGGCATTTTAGTTCACCTATATTAGTGCGGAGTCACCTAGTGCAG”, the binding signal was 40900 fluorescence intensity (a.u.). Consider “TGCTAATTTGATTGTTCATGGTGACAGCTGGAGCACTGGGCGGAGTCACCTAGTGCAG”, for which the binding signal is 37900 fluorescence intensity (a.u.).

With “GTGGTTACTTATTAACATATGGTTAATTAAGTATTATATTCGGAGTCACCTAGTGCAG”, the binding signal was 3640 fluorescence intensity (a.u.). In the case of “ATAACCACATCTTAATTAACTAAAATACTCACATTTTAGTCGGAGTCACCTAGTGCAG” it was 5750 fluorescence intensity (a.u.); in that of “TAGAGAGATTGATATTTCATGTGCTCTAGAGATGGTTGAGCGGAGTCACCTAGTGCAG”, 28900 fluorescence intensity (a.u.); in that of “CATACTTCAGTGATTGAACCTAGGATTATAAACTCTAACTCGGAGTCACCTAGTGCAG”, 31500 fluorescence intensity (a.u.).

For “ATATCGTGATTATTACTCACCACACGTTGTACACAATGATCGGAGTCACCTAGTGCAG”, the binding signal is 14000 fluorescence intensity (a.u.). Take “AATTAATAGAATATCATTTTGTTGAATCCAGTAGCATACACGGAGTCACCTAGTGCAG”: the binding signal is 8540 fluorescence intensity (a.u.). Turning to “TTCCCCACCAATCTAATAGGTAAGATTTCTTAGAACAAGCCGGAGTCACCTAGTGCAG”, the binding signal is 3650 fluorescence intensity (a.u.). In the case of “ACCAAATTAGTGGCTGTACCGAACGTTATTAGCGCTTTAACGGAGTCACCTAGTGCAG” it was 10500 fluorescence intensity (a.u.); in that of “CTTTCTCCTGCTAATTTCTATCAACGGAAATTTCGCAAATCGGAGTCACCTAGTGCAG”, 4600 fluorescence intensity (a.u.); in that of “TACTAGCTAAGTTTAATTAATTTCAAAATGCAAGCTGATCCGGAGTCACCTAGTGCAG”, 4170 fluorescence intensity (a.u.). “GAACGGAGGATGCTGAGCTCTCTTATGAGGTCTATTTTCCCGGAGTCACCTAGTGCAG”: the binding signal was 65100 fluorescence intensity (a.u.). With “GTAAATTAACTGATGGTAGTACAAACAACACAAATCTGAACGGAGTCACCTAGTGCAG”, the binding signal is 43800 fluorescence intensity (a.u.). In the case of “TGAAATTATCATTTATTTATTTGTGACTTGATTTATCATCCGGAGTCACCTAGTGCAG” it was 31400 fluorescence intensity (a.u.). “GGGCTGTTTAGTTTTGGATTGATTGAGCAATGTAATATAACGGAGTCACCTAGTGCAG”: the binding signal is 22200 fluorescence intensity (a.u.).

For “AGTTCAATTGCTTTGATGAGTGAGCAGAGAGATGATGCAGCGGAGTCACCTAGTGCAG”, the binding signal is 3420 fluorescence intensity (a.u.).

For “TTCCCAAATTATCTAACTTGGTCTAGACTAGAGGCAACCACGGAGTCACCTAGTGCAG”, the binding signal was 5560 fluorescence intensity (a.u.).

As for “GTTAGATAGAATGGTAACACAGACTGACATATACACAAGACGGAGTCACCTAGTGCAG”, the binding signal was 20900 fluorescence intensity (a.u.).

Regarding “TCGACTAATTTATGAGACAAATATTTTAAGACTAATTGCTCGGAGTCACCTAGTGCAG”, the binding signal was 31700 fluorescence intensity (a.u.). Turning to “GAAATAGATCGTCCCAATTAACTAACTAAACCACTGTAAACGGAGTCACCTAGTGCAG”, the binding signal was 9720 fluorescence intensity (a.u.). Turning to “ATTGATTTCTGATATGTTGAGCAAGGGCATTCCTCCTCCTCGGAGTCACCTAGTGCAG”, the binding signal was 10900 fluorescence intensity (a.u.).

Turning to “CCAAAATTGCTCCGACATATATTGATCTTGGCAAAGTTACCGGAGTCACCTAGTGCAG”, the binding signal is 5880 fluorescence intensity (a.u.). Consider “GGAGGTTGACAGAAAACTGGATGGAAGTGGCATGGTTCCACGGAGTCACCTAGTGCAG”, for which the binding signal is 5700 fluorescence intensity (a.u.).

Regarding “TCTATATTAATTATGATTTTGTTCGAAGATAAGTAATTATCGGAGTCACCTAGTGCAG”, the binding signal was 18900 fluorescence intensity (a.u.).

Regarding “CTCATGTGAATGATTTGTCTGCATTGCTAGGTTGTGTCAGCGGAGTCACCTAGTGCAG”, the binding signal was 7510 fluorescence intensity (a.u.). In the case of “GTAATTGGTAAACTGATACTAATATGATCCATATGGTCCACGGAGTCACCTAGTGCAG” it was 34000 fluorescence intensity (a.u.); in that of “CGCCAGGTCCAAGCACCGTTGATTGCTTCAGTGTCCGTCACGGAGTCACCTAGTGCAG”, 3880 fluorescence intensity (a.u.).

As to “TGAACTGGACCTAATCAACCAGTAATCACTGGACAGAAAACGGAGTCACCTAGTGCAG”, the binding signal was 3290 fluorescence intensity (a.u.).

Turning to “TTATGATATGTATCCAATCAAAATAAGATGAAGAGACTATCGGAGTCACCTAGTGCAG”, the binding signal is 10100 fluorescence intensity (a.u.). For the sequence “ATTATATCTTTCAATCATTTGATTTGATTTTCTTTCCCATCGGAGTCACCTAGTGCAG”, the binding signal was 19000 fluorescence intensity (a.u.). “TGGCTGATTGTAGATTAAATTGGGTTGACACCTTTGCTATCGGAGTCACCTAGTGCAG”: the binding signal was 33800 fluorescence intensity (a.u.). Turning to “ACAACGGTATCAGGAGTCGGAACAGCAACTTTCTATCGTCCGGAGTCACCTAGTGCAG”, the binding signal was 21100 fluorescence intensity (a.u.). With “TGGCGGATTTTGTAATTTGTTGTTATTAGACTACGTTTAACGGAGTCACCTAGTGCAG”, the binding signal was 6260 fluorescence intensity (a.u.). As to “GCCTTGATTATCACCTCCTGTACAAGTGTTAGATACTTCTCGGAGTCACCTAGTGCAG”, the binding signal was 36100 fluorescence intensity (a.u.).

“CCTGATAATGATGATGAGTTCAGCATCGAGTTAGCTCTCACGGAGTCACCTAGTGCAG”: the binding signal was 19700 fluorescence intensity (a.u.). In the case of “ATTAATTATGTAATATATGTTTATAGATAATTATTGTATGCGGAGTCACCTAGTGCAG”, the binding signal was 46800 fluorescence intensity (a.u.).
